Reference: the supplement of paper PMC11417369
± gives the standard deviation of the averaged measurements. The list shows a part of the results.

system: PfAP2-G AP2 domain (GST-tagged); experiment: gcPBM binding intensity (ln(normalized median fluorescence intensity)); higher = stronger DNA binding
Summary of the method: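 Plasmodium falciparum DNA-binding domains carrying a GST tag were expressed in E. coli and applied for 1 h, at about 25 μg on average, to an Agilent 4 × 180k array. The array held primer-extended double-stranded 36-bp intergenic genomic probes together with negative controls, and binding took place in 1× PBS with 1% milk, 0.2 mg/ml BSA, 0.5% salmon testes DNA and 0.03% Triton X-100. An Alexa488 anti-GST antibody detected bound protein, and the array was scanned at 488 nm. Binding intensity is taken as the highest Masliner-normalised natural-log median intensity across replicate spots of either probe orientation.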

Row | Sequence | gcPBM binding intensity (ln)
1 | TAATTACCATATGGTACACACATATATATATGTATA [CACACA_site3487] | 11.2 ± 0.79
2 | TTATTTTTTCAAGAATGTACTTACGAATTGTCGTAT [XGTACX_site1363] | 11.1 ± 0.71
3 | ATCAATACACATATATGTACATATAATAATTATCTT [XGTACX_site662] | 11.3 ± 0.76
4 | CAAAAAAACAAACACACACACACACCCATATATATA [CACACA_site3653] | 9.93 ± 0.23
5 | TTATAAATTATATATATGACCAATAATTGTGAGCAT [CACACA_negctrl_site725] | 10.9 ± 0.53
6 | TGTTATTAAAACGTGACACACAATATATATATATAT [CACACA_site3539] | 10.2 ± 0.29
7 | TTTTTTTTTAAGCAAAGGAAATCAAAATAAAAATAT [CACACA_negctrl_site719] | 10.1 ± 0.22
8 | TTTTTTTTTTTTTTTTGTACACATAGTAAAAATTAA [XGTACX_site2410] | 11.2 ± 1
9 | TTTTTTTTTTATTCTACACACATATGTTTTTATATG [CACACA_site182] | 9.98 ± 0.071
10 | TATATATATATATGTTGTACTTTTAATTTAAATGTA [XGTACX_site4239] | 11.6 ± 0.94
11 | GGATGATTAAGGGGGACACACGTTTATATATTTATA [CACACA_site4342] | 11.7 ± 0.9
12 | AAATATATATATATAATACACACTAAAGTAACATAA [CACACA_site2870] | 9.945 ± 0.049
13 | TGTCGACATGTAGGTAGTACTATTAAAAATAATGAT [XGTACX_site3849] | 11.6 ± 1.2
14 | ATAGAAGGACATATAACACACATATATTATAAGTAT [CACACA_site5461] | 10.9 ± 0.64
15 | ATTCAAAAGGTTTAATGTACGTGATGTTTCACAAAT [XGTACX_site784] | 11.1 ± 0.79
16 | CATACTCTACATAGATGTACTCATTTAAAAAAAAAA [XGTACX_site6945] | 11.3 ± 0.98
17 | ATTTTTTTTTTTTTTTTTTTTTTTTTCTCTCTCACT [CACACA_negctrl_site1046] | 9.73 ± 0.24
18 | ATATATTATTATATATGTACTTATTTATAAATGATT [XGTACX_site7597] | 11.3 ± 0.77
19 | AAATAGGGAATTTATGCACACAGTTAAGGGGGAAAA [CACACA_site2071] | 10.8 ± 0.47
20 | AATAAATTAATAAGGTGTACATAAATAATTTATATA [XGTACX_site8278] | 11.5 ± 0.94
21 | TAAATATAAACACAAACACACACATATATATATATA [CACACA_site7978] | 9.93 ± 0.12
22 | AAAACGTATCACAAAAGTACAGATAGTTATAATATA [XGTACX_site185] | 11.4 ± 1

Row | Sequence | gcPBM binding intensity (ln)
23 | CGAAACCATATGTACACACACATATATAAATATGTA [CACACA_site7082] | 11.3 ± 0.88
24 | TGATAGCTAGCTATATGTACATATATATATATATAT [XGTACX_site393] | 11.2 ± 0.73
25 | CTTTCGGTTGGAGAGGTGCGCTTCTCCTTTATAATA | 10 ± 0.33
26 | AAACATCATAAATATACACACATATATATATATATA [CACACA_site620] | 10.1 ± 0.32
27 | TACACAAAATTTAAATGTACATTAAATATATGATGT [XGTACX_site2140] | 11 ± 0.39
28 | ATTTATCTATAATATACACACATATAACAGACATAT [CACACA_site6469] | 10.1 ± 0.14
29 | AATGAAAATAAATTAACACACAATTTTAATATTGTT [CACACA_site1306] | 9.74
30 | TTTATATTTCTCTTTAGTACATATTATATTCTTTTA [XGTACX_site1618] | 10.7 ± 0.42
31 | AATTATTTACCTTCTTTGAAAGAACAAATGATACAA [CACACA_negctrl_site1315] | 10.1 ± 0.23
32 | ATATATATATATATATGTACTTATAATTCTTCAATT [XGTACX_site5627] | 11.2 ± 0.87
33 | GTATACTTAACATTCACACATATATATATATATAAA [CACACA_site4596] | 10.2 ± 0.46
34 | ATATATCAACTCATATTATTTTCTTTTATTATTTAT [CACACA_negctrl_site276] | 9.69 ± 0.12
35 | CTAAAACAATAAATCACACATACATAGGATAATATA [CACACA_site4247] | 9.92 ± 0.014
36 | ATTTATAATCTGTATAGTACACATATATACATGGTT [XGTACX_site2714] | 11.1 ± 0.62
37 | TATAAAAAATGATAAAGTACTTTATACACACAAATA [XGTACX_site8486] | 11.2 ± 0.73
38 | AAAATATACACACATATGTATATAATATTATATGTA [GTGCAC_negctrl_site496] | 9.9
39 | TCTTAAATATACAGTTGTACTAAACAAAAAAAAAAA [XGTACX_site2639] | 11.1 ± 0.83
40 | ATTAATTTTCCATTCACACATATATATATATATATA [CACACA_site6065] | 10.1 ± 0.28
41 | ATAGCATATATTTTTTGTACATATGTTATATATATA [XGTACX_site2184] | 10.9 ± 0.52
42 | TACAAATATATATGCACACACATATCTGTATATGTG [CACACA_site5663] | 10.38 ± 0.035
43 | TATATAAAACCTTATTGTACTATTAGACTATGCTTA [XGTACX_site6026] | 10.9 ± 0.61
44 | CAAATATCTATTTAGTGTACTAATATATTCAATAAT [XGTACX_site2345] | 11.3 ± 0.82

Row | Sequence | gcPBM binding intensity (ln)
45 | ACAAAGACAATTTTGTTATATATAAAAAAAAAAAAT [CACACA_negctrl_site253] | 9.78 ± 0.099
46 | AATTCTTTTTATATATTAAATATTATTAATAAGTCA [CACACA_negctrl_site1488] | 9.735 ± 0.035
47 | ACACATTATAACAAGGTGCAATTTTTATACACATGT [GTGCAC_site9866] | 10.05 ± 0.035
48 | ATGTAGATATATATCTGTACGTATATGTAAATATTA [XGTACX_site1516] | 11.5 ± 0.97
49 | AAAAATTCTTGGCGCACACACTTTAAAAGTTAAAAA [CACACA_site6430] | 10.7 ± 0.54
50 | GTATATTTCTTTAAATGTACACATTTTTTTAAAGAG [XGTACX_site1225] | 11.4 ± 0.98
51 | AATTGTATAAATGGAATAATGACTATGATTATACAT [GTGCAC_negctrl_site188] | 9.97 ± 0.14
52 | TATAAAAAATATCCTTTTTTTATACATCAATATATA [TGCATGCA_negctrl_site291] | 9.68 ± 0.014
53 | CACTAATAGTGGATTACACACATATAGATGTATATA [CACACA_site7234] | 10.17 ± 0.042
54 | GAAAAAAAAAAAAATACACACAAATTGGTATATAAC [CACACA_site6315] | 9.925 ± 0.035
55 | GCTATAATAAAATTTAAACACACGTAATATAATATA [CACACA_site2592] | 10.1 ± 0.18
56 | AAAATTTCATAAAGACGTACTATAAAAATAAAATTA [XGTACX_site4182] | 11.4 ± 0.98
57 | AAAAAAAACAGACACACACACAAATATATAAAAATA [CACACA_site1172] | 10.1 ± 0.24
58 | TTTTTGAAATAATGAAACAGCAAAAAAACAAAAATA [CACACA_negctrl_site221] | 10.3 ± 0.24
59 | TATTAAAAGAAAATAACACACACAAAAAAAAAAAAA [CACACA_site8661] | 9.74 ± 0.24
60 | AAAATAAGCGTGAAACGTACATATTACATTATTATA [XGTACX_site8914] | 11.1 ± 0.74
61 | TCATTCTATCTGTTCACACATACACAAAAAAAAAAA [CACACA_site5141] | 10.4 ± 0.54
62 | TATATACATGTGAGAGTGCATATAGACATAAAAAAT | 10.3 ± 0.16
63 | TTTTAAAATATCAACACACTCATTATTTTCTATATT [CACACA_site4740] | 9.7 ± 0.099
64 | AAAATAAAAACAAAATCACACATTCCAGTTTTTTTT [CACACA_site5356] | 9.52 ± 0.35
65 | ATATATTTTGTATGTAGTACAATTTTATAATCATAT [XGTACX_site8373] | 11.2 ± 0.78
66 | TCAATTTGGAACGGTATGCACTAATTTTATATTTTT | 9.975 ± 0.035

Row | Sequence | gcPBM binding intensity (ln)
67 | TATTACAAATATGGCACACATATATATATATATATT [CACACA_site3268] | 10.1 ± 0.19
68 | AATAATGAATACACATGTACAAAAATTTTTCTTACT [XGTACX_site1962] | 10.9 ± 0.41
69 | ATATACAGATAAATGTGTACTTAAATCTATTATATT [XGTACX_site2632] | 11.4 ± 0.83
70 | AAGGTCATTTTATATTGTACATGAAATTGTTATGTA [XGTACX_site187] | 10.9 ± 0.57
71 | AGAAGTAAAAAAATAGCACACACACTAATACCAACA [CACACA_site8354] | 10.5 ± 0.3
72 | ATTTTTATATATATCTGTACTAAAAAAAAAAAAAAA [XGTACX_site5258] | 11.1 ± 0.98
73 | TTTAATTATTTATTTTGTACATATATTATATATATA [XGTACX_site5760] | 10.7 ± 0.4
74 | AAAAGAAAAATATTCACACATATAAATAATATATAA [CACACA_site4201] | 9.615 ± 0.035
75 | AAACAAAAAAGAAAAACAATGAGATAAAGAAGAGAA [CACACA_negctrl_site804] | 9.77 ± 0.16
76 | TATTTATATATTTGTTGTACGTATTTATATATTCTT [XGTACX_site3622] | 11.6 ± 0.95
77 | TTATATTAATATTATATTTAAAAATAAAATATAAAT [TGCATGCA_negctrl_site79] | 9.54 ± 0.23
78 | TCTTGTTCGCCCTATTGTACAAACATATATTGTGAT [XGTACX_site2884] | 10.9 ± 0.45
79 | TTATTTTGATCTGGTTGTACATATAATATATAGTGG [XGTACX_site357] | 11.2 ± 0.76
80 | ACCATATAAAGTTAGGTGCATTTGTATGTATCTTAC | 9.88 ± 0.099
81 | TTTTATTTTTGTTGGTCCCTCATTTAAGTTAATAAA [TGCATGCA_negctrl_site465] | 11.1 ± 0.71
82 | TTTTCAATATATATATGCTGAATTTATAATTTGTAT [CACACA_negctrl_site1774] | 9.52 ± 0.16
83 | ATATTGATTTGTGGCACACATATAATATATTCCTAT [CACACA_site3046] | 10.2 ± 0.27
84 | TGAATAATAAAAAATACACACACATATATATATATT [CACACA_site9146] | 9.8 ± 0.11
85 | ATTAATTTGATTTTAATAAGAATATTTGTGGGGAAT [GTGCAC_negctrl_site198] | 9.82 ± 0.085
86 | ATTTTTTTTGTTTATTCTTATGTGGTTATTAAATTA [CACACA_negctrl_site1000] | 10.1 ± 0.17
87 | ATTATGAAATATCGTGCACACACGAATAATATAAGA [CACACA_site1294] | 10.3 ± 0.39
88 | TATTTGTTTAAATTCACACACGTATATATATTTATA [CACACA_site5651] | 10.2 ± 0.21
